Laboratory results published in the supplement of paper PMC10670038.
Structures can show the parent of a compound that is named as a salt. ± gives the standard deviation of the averaged measurements. The full ranking holds about 2,000 compounds; the median of “relative cell viability vs DMSO, compound + 0.2 uM CuET” is about 1, and the lowest 2% start at about 0.25. Some of the results follow.

system: TE10; experiment: relative cell viability vs DMSO, compound + 0.2 uM CuET (fraction); TE10 is an esophageal squamous carcinoma line; higher = less cytotoxic; details: 2 µM; co-treatment: CuET (bis(diethyldithiocarbamate)copper) 0.2 uM; 48 h
Experimental: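 TE10 ESCC cells (1,000/well, 384-well plates) were treated with Selleck bioactive library compounds at 2 uM combined with 0.2 uM CuET (copper diethyldithiocarbamate) for 48 h. Viability was read by CellTiter-Glo and expressed relative to DMSO wells. Two technical replicates (A, B).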

| SMILES | relative cell viability |
| --- | --- |
| CC#CCn1c(N2CCC[C@@H](N)C2)nc2c1c(=O)n(Cc1nc(C)c3ccccc3n1)c(=O)n2C [Linagliptin] | 1.33 ± 0.14 |
| CCN(CC)CCOCCOC(=O)C1(c2ccccc2)CCCC1 [Pentoxyverine Citrate] | 1.25 ± 0.042 |
| COc1cc(NC(=O)c2ccccn2)ccc1Cl | 1.16 ± 0.24 |
| Cc1cc(C(C)(C)C)cc(C)c1CC1=NCCN1 [Xylometazoline HCl] | 1.16 ± 0.14 |
| CCN(CC)C(=O)C1(c2ccccc2)CC1CN (centres undefined) [Milnacipran HCl] | 1.06 ± 0.062 |
| N#C/C(=C(/N)Sc1ccc(N)cc1)c1ccccc1C(F)(F)F | 1.14 ± 0.089 |
| COc1cc2nc(N3CCN(C(=O)C4COc5ccccc5O4)CC3)nc(N)c2cc1OC (centres undefined) [Doxazosin Mesylate] | 1.1 ± 0.022 |
| O=c1c(O)c(-c2ccc(O)cc2)oc2cc(O)cc(O)c12 [Kaempferol] | 1.12 ± 0.089 |
| NC[C@@](O)(c1ccc(Cl)cc1)c1ccc(-c2cn[nH]c2)cc1 | 1.04 ± 0.051 |
| CNC(=O)c1ccc(N2C(=S)N(c3ccc(C#N)c(C(F)(F)F)c3)C(=O)C2(C)C)cc1F [Enzalutamide (MDV3100)] | 0.774 ± 0.15 |
| COc1cc(OC)c(NC(=O)Nc2cc(C)on2)cc1Cl | 1.1 ± 0.05 |
| CCCc1ccc(OCC(=O)N(Cc2nc(-c3cccnc3)no2)C(C)C)cc1 | 1.18 ± 0.13 |
| CC(C)(C)c1cc(NC(=O)Nc2ccc(-c3cn4c(n3)sc3cc(OCCN5CCOCC5)ccc34)cc2)no1 [Quizartinib (AC220)] | 0.362 ± 0.054 |
| CC1(C)Cc2c(-c3ccccc3)c(-c3ccc(Cl)cc3)c(CC(=O)O)n2C1 [Licofelone] | 1.17 ± 0.023 |
| CNC(=O)c1c(F)cccc1Nc1nc(Nc2cc3c(cc2OC)CCN3C(=O)CN(C)C)nc2[nH]ccc12 | 1.06 ± 0.1 |
| O=C(/C=C/c1cccc(S(=O)(=O)Nc2ccccc2)c1)NO [Belinostat (PXD101)] | 0.195 ± 0.017 |
| CN[C@H]1CC[C@@H](c2ccc(Cl)c(Cl)c2)c2ccccc21 [Sertraline HCl] | 0.95055 ± 0.00074 |
| CC[C@H]1OC(=O)[C@H](C)[C@@H](O[C@H]2C[C@@](C)(OC)[C@@H](O)[C@H](C)O2)[C@H](C)[C@@H](O[C@@H]2O[C@H](C)C[C@H](N(C)C)[C@H]2O)[C@](C)(O)C[C@@H](C)CN(C)[C@H](C)[C@@H](O)[C@]1(C)O [Azithromycin] | 0.675 ± 0.035 |
| CC[C@H]1OC(=O)[C@H](C)[C@@H](O[C@H]2C[C@@](C)(OC)[C@@H](O)[C@H](C)O2)[C@H](C)[C@@H](O[C@@H]2O[C@H](C)C[C@H](N(C)C)[C@H]2O)[C@](C)(O)C[C@@H](C)CN(C)[C@H](C)[C@@H](O)[C@]1(C)O [Azithromycin Dihydrate] | 1.12 ± 0.015 |
| CCn1c(N)c(C(=O)NC)c(=O)c2ccc(C#CC(C)(O)COC)nc21 (centres undefined) | 1.35 ± 0.3 |
| OCCn1cc(-c2ccc3c(c2)CC/C3=N\O)c(-c2ccncc2)n1 | 1.19 ± 0.045 |
| CN1CCc2nc(C(=O)N[C@@H]3C[C@@H](C(=O)N(C)C)CC[C@@H]3NC(=O)C(=O)Nc3ccc(Cl)cn3)sc2C1 [Edoxaban] | 1.22 ± 0.08 |
| O=C1C(Cl)=C(N2CCOCC2)C(=O)N1c1ccc(Cl)c(Cl)c1 | 1.17 ± 0.026 |
| CC(C)[N+]1(C)[C@@H]2CC[C@H]1C[C@@H](OC(=O)C(CO)c1ccccc1)C2 (some centres undefined) [Ipratropium Bromide] | 1.01 ± 0.077 |
| Cc1ccc(-c2cc(C(F)(F)F)nn2-c2ccc(S(N)(=O)=O)cc2)cc1 [Celecoxib] | 1.19 ± 0.065 |
| Nc1ccc(S(=O)(=O)Nc2nccs2)cc1 [Sulfathiazole] | 1.1 ± 0.12 |
| O=C(O)c1cccc(-c2noc(-c3ccccc3F)n2)c1 [Ataluren (PTC124)] | 0.711 ± 0.053 |

| SMILES | relative cell viability |
| --- | --- |
| CCc1cc2c(cc1CC)CC(NC[C@H](O)c1ccc(O)c3[nH]c(=O)ccc13)C2 [Indacaterol Maleate] | 1.19 ± 0.18 |
| C=C[C@]1(C)C[C@@H](OC(=O)CSC(C)(C)CNC(=O)[C@H](N)C(C)C)[C@]2(C)[C@H](C)CC[C@]3(CCC(=O)[C@H]32)[C@@H](C)[C@@H]1O [Valnemulin HCl] | 1.3 ± 0.07 |
| Cc1c(-c2ccc(O)cc2)n(Cc2ccc(OCCN3CCCCCC3)cc2)c2ccc(O)cc12 [Bazedoxifene HCl] | 0.794 ± 0.06 |
| CC(C=CC1(O)C(C)=CC(=O)CC1(C)C)=CC(=O)O (centres undefined) [Abscisic Acid (Dormin)] | 1.26 ± 0.18 |
| NC[C@H](O)c1ccc(O)c(O)c1 [Noradrenaline bitartrate monohydrate] | 1.07 ± 0.023 |
| CCN(CC)CCNC(=O)c1ccc(N)cc1 [Procainamide HCl] | 0.957 ± 0.026 |
| N#C/C(=C1/SC[C@@H](c2ccc(Cl)cc2Cl)S1)n1ccnc1 [Luliconazole] | 1.01 ± 0.069 |
| O=[N+]([O-])c1ccc(Nc2nc(N3CCOCC3)nc(N3CCOCC3)n2)cc1 | 1.07 ± 0.079 |
| O=C1O[C@H]([C@@H](O)CO)C([O-])=C1O.[Na+] [Sodium ascorbate] | 1.24 ± 0.038 |
| CCCCOc1cc(C(=O)OCCN(CC)CC)ccc1N [Oxybuprocaine HCl] | 1.08 ± 0.13 |
| CCOC(=O)C1=C(N)Oc2ccc(Br)cc2C1C(C#N)C(=O)OCC (centres undefined) | 0.67 ± 0.1 |
| NC1(Cc2ccc(Cl)cc2)CCN(c2ncnc3[nH]ccc23)CC1 | 0.996 ± 0.041 |
| Cc1cc(C(C)Nc2ccccc2)c2nc(N3CCOCC3)cc(=O)n2c1 (centres undefined) | 1.147 ± 0.0084 |
| Clc1ccc2nsnc2c1NC1=NCCN1 [Tizanidine HCl] | 1.25 ± 0.14 |
| Cc1cc(Nc2cc(N3CCN(C)CC3)nc(Sc3ccc(NC(=O)C4CC4)cc3)n2)n[nH]1 [VX-680 (Tozasertib, MK-0457)] | 1.19 ± 0.03 |
| CC(C)Oc1ccc2c(=O)c(-c3ccccc3)coc2c1 [Ipriflavone (Osteofix)] | 0.968 ± 0.056 |
| Nc1nc(OCc2cc(Br)cs2)c2[nH]cnc2n1 [Lomeguatrib] | 1.029 ± 0.0083 |
| CCCCOc1ccc(C(=O)Nc2ccc(F)cc2F)cc1 | 0.957 ± 0.16 |
| C=C[C@](C)(O)CC[C@@H]1[C@@]2(C)CCCC(C)(C)[C@@H]2CC[C@@]1(C)O [Sclareol] | 0.939 ± 0.14 |
| CNC(=O)[C@@H](NC(=O)[C@H](CC(C)C)[C@H](O)C(=O)NO)C(C)(C)C [Marimastat(BB-2516)] | 0.936 ± 0.11 |
| C[C@]12CC[C@@H]3c4ccc(O)cc4C[C@@H](CCCCCCCCC[S+]([O-])CCCC(F)(F)C(F)(F)F)[C@H]3[C@@H]1CC[C@@H]2O (some centres undefined) [Fulvestrant] | 1.03 ± 0.015 |
| Clc1ccc(C2(c3ccc(-c4cn[nH]c4)cc3)CCNCC2)cc1 | 1.02 ± 0.029 |
| CCS(=O)(=O)c1cccc(-c2cc(C(=O)NC3CCN(C)CC3)c(C)c3[nH]c4ncc(C)cc4c23)c1 | 0.886 ± 0.14 |
| COC(=O)[C@H](Cc1ccccc1)NC(=O)[C@@H](N)CC(=O)O [Aspartame] | 1.09 ± 0.034 |
| NC(=O)C1CCCc2c1[nH]c1ccc(Cl)cc21 (centres undefined) [EX 527 (Selisistat)] | 1.15 ± 0.033 |
| CCCCc1oc2ccc(NS(C)(=O)=O)cc2c1C(=O)c1ccc(OCCCN(CCCC)CCCC)cc1 [Dronedarone HCl] | 0.497 ± 0.083 |
| CCC1(c2ccccc2)C(=O)NCNC1=O [Primidone] | 0.884 ± 0.059 |

| SMILES | relative cell viability |
| --- | --- |
| COc1cc(Nc2c(C#N)cnc3cc(OCCCN4CCN(C)CC4)c(OC)cc23)c(Cl)cc1Cl [Bosutinib (SKI-606)] | 0.785 ± 0.17 |
| CN(C)CCC(c1ccc(Br)cc1)c1ccccn1 (centres undefined) [Brompheniramine hydrogen maleate] | 1.21 ± 0.013 |
| COc1ccc(Cl)cc1NC(=O)Nc1cc(C)nc2ccccc12 | 1.06 ± 0.04 |
| c1ccc(-c2ccc(C(c3ccccc3)n3ccnc3)cc2)cc1 (centres undefined) [Bifonazole] | 0.885 ± 0.046 |
| Oc1c(Cl)cc(Cl)c2cccnc12 [Chloroxine] | 0.502 ± 0.07 |
| O=C1CC[C@@H](C(=O)N2CSC[C@H]2C(=O)O)N1 [Pidotimod] | 1.05 ± 0.17 |
| O=C(Nc1cccnc1)c1cc(-c2ccnc(F)c2)ccc1OCc1ccccc1 | 0.887 ± 0.14 |
| CCOc1nc2cccc(C(=O)O)c2n1Cc1ccc(-c2ccccc2-c2nnn[nH]2)cc1 [Candesartan] | 1.06 ± 0.031 |
| C=CC(=O)Nc1cccc(Oc2nc(Nc3ccc(N4CCN(C)CC4)cc3)ncc2Cl)c1 | 0.827 ± 0.063 |
| C[C@@](Cc1ccc(O)c(O)c1)(NN)C(=O)O [Carbidopa] | 0.896 ± 0.024 |
| CC1CCN(CC[C@H]2CCCN2S(=O)(=O)c2cccc(O)c2)CC1 | 1.14 ± 0.031 |
| Nc1ncnc2c1ncn2[C@@H]1O[C@H](CO)[C@@H](O)[C@@H]1O [Vidarabine] | 1.13 ± 0.058 |
| COc1cccc(C=NCCN=Cc2cccc(OC)c2[O-])c1[O-].[Cl-].[Mn+3] | 1.27 ± 0.1 |
| COC(=O)Nc1nc2cc(Sc3ccccc3)ccc2[nH]1 [Fenbendazole] | 0.746 ± 0.1 |
| CC(C)(C)c1cc(C(C)(C)C)c(NC(=O)c2c[nH]c3ccccc3c2=O)cc1O [Ivacaftor (VX-770)] | 0.531 ± 0.17 |
| Cc1ccc([C@@H]2O[C@H](CO)[C@@H](O)[C@H](O)[C@H]2O)cc1Cc1ccc(-c2ccc(F)cc2)s1 [Canagliflozin] | 1.31 ± 0.21 |
| CC(C)NC[C@@H](C(=O)N1CCN(c2ncnc3c2[C@H](C)C[C@H]3O)CC1)c1ccc(Cl)cc1 | 0.585 ± 0.34 |
| Cn1c(=O)c2c(ncn2CC2OCCO2)n(C)c1=O [Doxofylline] | 1.17 ± 0.037 |
| COc1ccc(Oc2cc(C)c(-c3csc(NC(=O)c4ccncc4)n3)c(C)c2)cc1 | 0.89 ± 0.15 |
| CCCCNc1ncc(C(=O)NCc2ccc(-n3ccnc3)cc2)c(NC2CCC(O)CC2)n1 (centres undefined) | 0.785 ± 0.27 |
| C=CC(=O)Nc1cccc(Sc2nc(Nc3ccc(N4CCN(C)CC4)cc3)ncc2Cl)c1 | 0.846 ± 0.02 |
| CCOC(=O)[C@H]1O[C@@H]1C(=O)N[C@@H](CC(C)C)C(=O)NCCC(C)C [Aloxistatin] | 1.18 ± 0.18 |
| Nc1nc2c(ncn2COC(CO)CO)c(=O)[nH]1 [Ganciclovir] | 1.1 ± 0.17 |
| Cc1csc(-c2nnc(Nc3ccc(Oc4ncccc4-c4ccnc(N)n4)cc3)c3ccccc23)c1 | 1.13 ± 0.22 |
| CC(C)Oc1ccc(-c2cnc3c(-c4ccnc5ccccc45)cnn3c2)cc1 | 1.15 ± 0.088 |
